The results in this text go back to publication PMC3627919.

Sequences of proteins named here, by UniProt entry; tags and fusion partners are left off. A change or cut given only in a name is not applied to a line headed by its entry. Residues count along the entry.
UniProt P42768, residues 220-288: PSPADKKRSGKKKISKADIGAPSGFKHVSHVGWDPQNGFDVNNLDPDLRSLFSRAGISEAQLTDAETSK
UniProt P60953: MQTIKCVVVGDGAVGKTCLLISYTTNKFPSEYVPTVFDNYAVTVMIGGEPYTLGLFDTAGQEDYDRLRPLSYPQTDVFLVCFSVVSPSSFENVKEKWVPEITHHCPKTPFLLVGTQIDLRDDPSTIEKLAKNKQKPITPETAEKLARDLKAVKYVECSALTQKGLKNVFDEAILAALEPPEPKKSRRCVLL

Results are given in words; binding and its absence hold for the method and conditions named. Binding seen in cells or lysates may run through a third protein. Some results given as binding are weak or reduced against the parent protein; the word gives no strength.

Assay [1] has as its target Nfluc416-WASP (human) (UniProt P42768). The assay is described as follows: split reporter; bimolecular luminescence complementation (split firefly luciferase) in living HEK 293 cells, 24 h after transient cotransfection of the pair (50 ng/well) with pRL-tk; D-luciferin 150 ug/ml; IVIS CCD camera; ratio FL at 600 nm to RL at 500 nm; wild-type pairs also with co-expressed GEF or GAP catalytic domains.

Assay [2] has the same target. The assay is described as follows: split reporter; bimolecular luminescence complementation in living NIH 3T3 cells, serum-starved 6 h, then stimulated with insulin (Rac1), lysophosphatidic acid (RhoA) or bradykinin (CDC42); sequence images for 30 min, or 3 min after different concentrations.
Assay [3] concerns the target c-myc-tagged Nfluc416-WASP (human) (UniProt P42768). The assay is described as follows: co-IP; lysate of transfected HEK 293 cells (20 mM Tris pH 7.5, 150 mM NaCl, 1% Triton X-100); precipitated with mouse anti-myc antibody and protein G magnetic beads; Nfluc-effectors detected with anti-myc, Cfluc-Rho GTPases with anti-luciferase polyclonal antibody.

Consider “Cfluc398-CDC42(F37A) (from UniProt P60953 1-191)”, for which the binding entry in assay [1] is listed as “no binding”.
Take “Cfluc398-CDC42(T17N) (from UniProt P60953 1-191)”: the binding result in assay [1] is listed as “binds weakly”.
Take “Cfluc398-CDC42(WT) (from UniProt P60953 1-191)”: the binding entry in assay [2] and in assay [1] was “binds” each time.
Take “HA-tagged Cfluc398-CDC42(G12V) (from UniProt P60953 1-191)”: the binding entry in assay [3] was “binds”.
“HA-tagged Cfluc398-CDC42(WT) (from UniProt P60953 1-191)”: the binding result in assay [3] is “binds”.
